Out of some 420,000 compounds screened, about 75 (0.02%) were called active. Inconclusive results, whose numbers are uncertain, are shown with a selection of clear calls. The call rests on the fitted dose curve; in most records, active means well fitted activation curve with a large enough effect; inconclusive means small, poorly fitted or top-dose-only effect; inactive means no such curve, though single readings can be large or run the other way. Potencies of inconclusive entries are doubtful fits and often do not repeat.
experiment: qHTS for Inducers of the Endoplasmic Reticulum Stress Response (ERSR) in Human Glioma: qHTS; conditions: U87-MG GRP78 promoter luciferase reporter, 16 h; activation: active compounds read high; further: nearly all actives have a fitted effect of over 35% in size; on activation: % of control where 0% means no effect
Summary of the method: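 Stably transfected U87-MG human glioma cells carrying a GRP78-based luminescent sensor were seeded at 1000 cells/well, pin-dosed with compounds and incubated 16 h. Luciferase reagent was then added, and end-point luminescence was read after 10 min at room temperature.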
Potency means the concentration at half of the fitted maximal effect; tags describe the fitted curve by direction and shape.

SMILES	activation	Potency
CC(=O)n1nc(-c2ccccc2)nc1NCc1ccc(N(C)C)cc1	inactive: 3.26%	
Nc1nc(Nc2ccc(Cl)cc2Cl)nc(C(F)(F)F)n1		inconclusive: 10 µM [activator, single point]
CC(NC(=O)CCNC(=O)c1ccco1)c1ccc(F)cc1 (stereo not drawn)		inconclusive: 50.1 µM [activator, single point]
COC(=O)c1cc2n(n1)CCN(Cc1ccccc1Cl)C2=O	inactive: -2.97%	
COc1ccc(N2CCN(C(=O)CNC(=O)Cc3ccc(Cl)cc3)CC2)cc1	inactive: -6.41%	
S=c1[nH]nc(Cc2ccccc2)n1Cc1ccco1	inactive: -2.49%	
C=CCNC(=S)/C(=C(/[O-])c1ccc([N+](=O)[O-])cc1)[n+]1ccccc1		inconclusive: 50.1 µM [activator, single point]
CCN(CC)S(=O)(=O)c1ccc(N2CCCC2)c(NS(=O)(=O)c2ccccc2)c1	inactive: -5.3%	
Cc1cc(C=O)c(C)n1-c1ccc(Oc2ccc([N+](=O)[O-])cn2)cc1	inactive: -3.2%	
Cc1ccc(NC(=O)c2ccc([N+](=O)[O-])o2)c(C)c1		inconclusive: 10 µM [activator, single point]
Cn1c(SCC(=O)Nc2ccc(F)cc2)nc2c([nH]c3ccccc32)c1=O		inconclusive: 44.7 µM [activator, partial curve, poor fit]
CN1/C(=C\C=C2/SC(=S)N(CC(=O)O)C2=O)C(C)(C)c2ccccc21	inactive: 2.94%	
Cc1nc(CNS(=O)(=O)c2cc(F)ccc2F)cs1		inconclusive: 28.2 µM [activator, single point]
COc1ccc(NC(=O)C2(C)CCN2Cc2csc3ccccc23)cc1OC (stereo not drawn)		inconclusive: 17.8 µM [activator, single point]
Cc1ccc(-c2csc(C(O)(c3ccccc3)C(F)(F)F)n2)cc1C (stereo not drawn)	inactive: -11.1%	
CCc1nnc(NS(=O)(=O)c2ccc(NC(=S)NC(=O)/C=C/c3ccc([N+](=O)[O-])cc3)cc2)s1	inactive: -1.97%	
COc1cc([C@H]2c3[nH]c4ccccc4c3C[C@H]3C(=O)N4[C@@H](c5cc(OC)c(OC)c(OC)c5)c5[nH]c6ccccc6c5C[C@H]4C(=O)N23)cc(OC)c1OC		inconclusive: 11.2 µM [activator, single point]
CCOC(=O)C(Cc1ccc(O)cc1)NC(=O)CCc1c[nH]c2ccccc12 (stereo not drawn)		inconclusive: 63.1 µM [activator, single point]
CNc1nc(Cl)nc(NC(C)(C)C)n1		inconclusive: 50.1 µM [activator, single point]
Cc1c(S(=O)(=O)c2ccccn2)c(N)n(Cc2cccc(Cl)c2)c1C	inactive: -2.51%	
CCn1c(C)nc2cc(C(=O)NNC(=O)c3ccc(C)cc3)ccc21	inactive: -1.47%	
CCOC(=O)c1c(C)[nH]c(C(=O)C(C)Cl)c1C (stereo not drawn)		inconclusive: 44.7 µM [activator, partial curve, poor fit]

SMILES	activation	Potency
COc1cc(/C=C/C(=O)OCC(=O)N(CC(C)C)c2c(N)n(Cc3ccccc3)c(=O)[nH]c2=O)ccc1O		inconclusive: 39.8 µM [activator, partial curve, poor fit]
Cn1c(=O)c2c(ncn2CC(=O)Nc2ccc(N3CCOCC3)cc2)n(C)c1=O		inconclusive: 28.2 µM [activator, single point]
CC(=O)n1cc(N(C(=O)CCl)c2ccc([N+](=O)[O-])cc2)c2ccccc21		inconclusive: 15.8 µM [activator, single point]
COc1ccc(Br)cc1CN1C(=O)NC2(CCCCCC2)C1=O	inactive: 0.0551%	
Cc1ccc(/C(C#N)=C\c2ccc(N3CCOCC3)o2)cc1		inconclusive: 12.6 µM [activator, single point]
CCOc1ccc(NC(=O)c2noc3c2CSc2ccccc2-3)cc1		inconclusive: 20 µM [activator, single point]
Cn1c(SCC(=O)N/N=C/c2ccc([N+](=O)[O-])s2)nnc1-c1ccccc1		inconclusive: 28.2 µM [activator, single point]
Cc1ccc(OCCN2CCN(C(=O)CCC(=O)Nc3nnc(CC(C)C)s3)CC2)cc1	inactive: -9.46%	
CC1CCc2c(sc(NC(=O)C3CCCO3)c2C#N)C1 (stereo not drawn)	inactive: -0.175%	
Cn1c(-c2nc(-c3ccccc3)cs2)nc2ccccc21		inconclusive: 50.1 µM [activator, single point]
Cc1ccc(S(=O)(=O)c2c(Nc3ccccc3)sc(C(=O)c3ccc4c(c3)OCO4)c2N)cc1	inactive: -3.02%	
COc1ccc(S(=O)(=O)N2CCC(c3nnc(-c4ccccc4C)o3)CC2)c(OC)c1	inactive: -3.21%	
COc1cc(/C=C(\C#N)C(=O)c2ccc(O)c(O)c2)cc(I)c1O		inconclusive: 41.4 µM [activator, partial curve, poor fit]
COc1cc(Br)cc(/C=C/c2ccc3cccc(O)c3n2)c1O	inactive: 8.12%	
Cc1occc1-c1nnc(SCC(=O)c2ccc(Cl)cc2)n1C		inconclusive: 39.8 µM [activator, partial curve, poor fit]
O=[N+]([O-])c1ccc(N/N=C/c2cccc(O)c2O)cc1		inconclusive: 5.62 µM [activator, partial curve, poor fit]
CCCc1cc(C(=O)Cc2nc3ccccc3s2)c(O)cc1O		inconclusive: 11.2 µM [activator, partial curve, poor fit]
O=C(/C=C/c1cccc([N+](=O)[O-])c1)c1cccs1		inconclusive: 44.7 µM [activator, partial curve, poor fit]
CCCCNC(=S)NC(C)(C)CO	inactive: -2.46%	
COC(=O)COc1cccc(NC(=O)c2cc(OC)cc(OC)c2)c1		inconclusive: 44.7 µM [activator, partial curve, poor fit]
CCOC(=O)C1CCN(C(=O)COC(=O)CNS(=O)(=O)c2ccc(SC)c([N+](=O)[O-])c2)CC1		inconclusive: 44.7 µM [activator, partial curve, poor fit]

From PubChem BioAssay AID602332 (National Center for Advancing Translational Sciences (NCATS), 2012)
